Reference: the supplement of paper PMC11417369
The other results are listed elsewhere or left out.

Each sequence was assayed on PfHDP1 homeodomain (GST-tagged) (assay: gcPBM binding intensity (ln(normalized median fluorescence intensity)); higher = stronger DNA binding).
Outline: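 Binding intensity is the highest Masliner-normalised natural-log median intensity over replicate spots in either probe orientation. To obtain it, GST-tagged P. falciparum DNA-binding domains made in E. coli were incubated for 1 h on an Agilent 4 × 180k array of primer-extended double-stranded 36-bp intergenic genomic probes plus negative controls. Detection used Alexa488 anti-GST antibody with scanning at 488 nm.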

| Sequence | gcPBM binding intensity (ln) |
| --- | --- |
| CATTTTAAAGAAAATACACACAAAAATAGATATATA [CACACA_site6773] | 6.73 |
| CAACATTTGATAAACACACAGAAGTATAAATATATA [CACACA_site2365] | 6.69 |
| ATCGTTATATAAAAATGTACTTATAAATTGTATACA [XGTACX_site6664] | 6.58 |
| AAAGGAAAAATCCAAGTGCATTATTATTTTCACAAA [GTGCAC_site9995] | 8.61 |
| TGTAAGCACATACAAACACACAACATTATTTTTATC [CACACA_site2186] | 6.7 |
| TAGTATAATATGAACACACACACACGCACAAAAAAA [CACACA_site7035] | 7.3 |
| ACAGTATCTGGTAGCTGTACGAGTCGTAGAGAGTAG [XGTACX_site2041] | 6.85 |
| ATTCAGTTATATAATACACACATATATTGACATTAT [CACACA_site2723] | 7.05 |
| TATTATATTATGTGATGTACATATTTATATAGGCCC [XGTACX_site4746] | 6.67 |
| TACGCTCCCAGACACACACACACACCGATATAATAT [CACACA_site8098] | 7.19 |
| ATTTATTGACTATTTACACACATATTTATTAAAATA [CACACA_site4980] | 7.14 |
| TATTACATACCTTATTGTACAAATTATATATTAAAG [XGTACX_site7334] | 6.71 |
| TATTGTTAAAATGAATAATTAAAACAGTAATGAATA [XGTACX_negctrl_site170] | 6.31 |
| TTAGCAACTATTACTACACACATTTTTATATAACTT [CACACA_site6762] | 6.89 |
| AAGAAATAAAGCAAAACATGCACTCGAAAATGTTTT [TGCATGCA_site1014] | 7.12 |
| CGCATGCAATGTTAATGTACATATATATATATATGT [XGTACX_site3316] | 6.66 |
| TATATATGTTTTTATGTACACACTTTTAACCTAAGA [CACACA_site1149] | 6.76 |
| ATGTCTAATTTTGATGCACACTTTTGTGCAATTAAA [CACACA_site5589] | 11 |
| AGGTGCAAAAATAAAACATGCAAAAATAAAAATGAA [TGCATGCA_site502] | 10.7 |
| AATAGTCGTGTGCATACACACCTTAACTATAATATA [CACACA_site6636] | 8.71 |
| TAATAAAAAATATATACACACAAATAAATAAATAAA [CACACA_site4037] | 6.73 |
| AATAATTAAATAAGAGTGCATGAAACAGGAAATTTC | 7.68 |

| Sequence | gcPBM binding intensity (ln) |
| --- | --- |
| TATTTATCTATTTTGTTATATAATAAAATAAAATAA [CACACA_negctrl_site281] | 6.24 |
| AAACAATTGAATAAATGTACAGATACATTTTTTTAA [XGTACX_site5386] | 6.09 |
| AAAAATAAACAAAATTGTACACATTACATACATATA [XGTACX_site966] | 6.73 |
| GAAAAAACGAAAAAAATACACACCTGAAAAGATATG [CACACA_site887] | 6.44 |
| ATACATACAAAAATTTGTACATATTTCCAATAATGT [XGTACX_site2658] | 6.59 |
| AAATTTCCATTTGGGTGTACATGTGAAACTACAAAG [XGTACX_site208] | 6.62 |
| GCCATAATATGACATACACACACAAAAAAAAAAAAA [CACACA_site8353] | 6.37 |
| TAATTTTTTTTTAATTGTACATGTGAATATATTTCA [XGTACX_site4115] | 6.34 |
| GTTTACATTTTAAGAAGTACAAAATTTATGGTTAAA [XGTACX_site450] | 6.75 |
| TATATATATATATGTAGTACTCAATATTGTAGATTA [XGTACX_site3856] | 9.13 |
| AAATATATGTATATATGTACATATGTGTGCTATCAT [XGTACX_site1604] | 7.33 |
| TTTATTCTTGAGTATTGTACATATGTGTTTGTATAT [XGTACX_site5706] | 6.79 |
| AAAGGTGTCATATATGCACACAAAAGTAACACGCAC [CACACA_site8051] | 10.2 |
| GAAAGAATAAAATTTACACACATATAAATATACATA [CACACA_site7125] | 6.15 |
| TATTTGAAAACATAGGTGCACATTATTTTATAATCT [GTGCAC_site9947] | 10.1 |
| AGGAGGATGCATATGGCACACATTATGAAACTGTCG [CACACA_site299] | 7.95 |
| TTTTTTTTTGAATACAGTACACAAGTGTTAAGTTTA [XGTACX_site7069] | 6.01 |
| TGTTCTTTGTTCAGCGCATGTAAAATAAAATAAAAT [TGCATGCA_site629] | 6.61 |
| TATGAATATCTATACACACACATATATATACCCACT [CACACA_site4963] | 6.84 |
| GATTGATTATATGTGTGTACTTATATGTTAAAAAAA [XGTACX_site4784] | 6.69 |
| TTTTTATTTATATGATACTTATATATATATATATAT [CACACA_negctrl_site462] | 9.28 |
| TCTTTTAAAAAAATTTGTACATATTTTTTGTATTAT [XGTACX_site67] | 6.64 |
